Some of the results follow. Rule as the data show it: active = 3.2 or more and inactive = the rest. Only a few entries rise above the background.
Each binder was assayed against SHP2 C-SH2 domain E139D (assay: enrichment score (SH2-bound / input frequency) (ratio); bacterial display of known human phosphotyrosine sites (pTyr-Var adds point mutants) read by sequencing; higher = stronger binding; tyrosines were phosphorylated by kinases first). Conditions: peptide library: pTyr-Var.
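Also: displayed peptides selected on beads carrying the immobilized SH2 domain, with library peptides lacking any tyrosine serving as negative controls.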

Enrichment score, inactive:
RNVYYYSYLLK [PTEN_Y178_Y174N] 2.71, ECKFLYSRKEG [PTPN11_Y263_L261F] 0.546, DKANRYFSPNV [PTEN_Y336_F341V] 0.617, RPYVYYYSYLL [PTEN_Y177_R173P] 1.72, DLDFTYIFPNI [PTEN_Y27_L25F_YF] 1.14, RHYVYYYSYLL [PTEN_Y177_R173H] 2.01, PRQRRYVFFFS [PTEN_Y174_S170R_YF] 0.313, RFLFFYSFLLK [PTEN_Y178_V175L_YF] 1.39, RNVFFYSFLLK [PTEN_Y178_Y174N_YF] 2.15, NHYKIHNLCAE [PTEN_Y68_Y68H] 1.75, PSQRRNVFFFS [PTEN_Y174_Y174N_YF] 0.698, NHFKRYNLCAE [PTEN_Y68_I67R_YF] 0.676, DEEDTYTMPST [PTK2_Y407] 0.631, PSQRRYVYYYS [PTEN_Y174] 0.6, VEEDTYTMPST [PTK2_Y407_D402V] 0.614, DKANRYFSPNF [PTEN_Y336] 0.876, RYLYYYSYLLK [PTEN_Y178_V175L] 2.5, LDPMVYMNDKS [PTK2B_Y834] 1.05

Each binder was assayed against SHP2 C-SH2 domain wild-type in the same assay as above. Conditions: peptide library: pTyr-Var.

Enrichment score, inactive:
RNVYYYSYLLK [PTEN_Y178_Y174N] 2.58, ECKFLYSRKEG [PTPN11_Y263_L261F] 0.616, DKANRYFSPNV [PTEN_Y336_F341V] 0.564, RPYVYYYSYLL [PTEN_Y177_R173P] 1.79, DLDFTYIFPNI [PTEN_Y27_L25F_YF] 1.28, RHYVYYYSYLL [PTEN_Y177_R173H] 2.38, PRQRRYVFFFS [PTEN_Y174_S170R_YF] 0.319, RFLFFYSFLLK [PTEN_Y178_V175L_YF] 1.48, RNVFFYSFLLK [PTEN_Y178_Y174N_YF] 1.84, NHYKIHNLCAE [PTEN_Y68_Y68H] 1.72, PSQRRNVFFFS [PTEN_Y174_Y174N_YF] 0.535, NHFKRYNLCAE [PTEN_Y68_I67R_YF] 0.605, DEEDTYTMPST [PTK2_Y407] 0.553, PSQRRYVYYYS [PTEN_Y174] 0.581, VEEDTYTMPST [PTK2_Y407_D402V] 0.466, DKANRYFSPNF [PTEN_Y336] 0.744, RYLYYYSYLLK [PTEN_Y178_V175L] 2.86, LDPMVYMNDKS [PTK2B_Y834] 0.619

Each binder was assayed against SHP2 N-SH2 domain L43F in the same assay as above. Conditions: peptide library: pTyr-Var.

Enrichment score, inactive:
RNVYYYSYLLK [PTEN_Y178_Y174N] 2.33, ECKFLYSRKEG [PTPN11_Y263_L261F] 0.953, DKANRYFSPNV [PTEN_Y336_F341V] 0.694, RPYVYYYSYLL [PTEN_Y177_R173P] 0.902, DLDFTYIFPNI [PTEN_Y27_L25F_YF] 1.06, RHYVYYYSYLL [PTEN_Y177_R173H] 1.9, PRQRRYVFFFS [PTEN_Y174_S170R_YF] 0.399, RFLFFYSFLLK [PTEN_Y178_V175L_YF] 1.07, RNVFFYSFLLK [PTEN_Y178_Y174N_YF] 1.68, NHYKIHNLCAE [PTEN_Y68_Y68H] 1.64, PSQRRNVFFFS [PTEN_Y174_Y174N_YF] 0.701, NHFKRYNLCAE [PTEN_Y68_I67R_YF] 0.484, DEEDTYTMPST [PTK2_Y407] 0.547, PSQRRYVYYYS [PTEN_Y174] 0.475, VEEDTYTMPST [PTK2_Y407_D402V] 0.391, DKANRYFSPNF [PTEN_Y336] 1.13, RYLYYYSYLLK [PTEN_Y178_V175L] 2.9, LDPMVYMNDKS [PTK2B_Y834] 0.886

Each binder was assayed against SHP2 N-SH2 domain T42A in the same assay as above. Conditions: peptide library: pTyr-Var.

Enrichment score, inactive:
RNVYYYSYLLK [PTEN_Y178_Y174N] 2.32, ECKFLYSRKEG [PTPN11_Y263_L261F] 0.596, DKANRYFSPNV [PTEN_Y336_F341V] 0.606, RPYVYYYSYLL [PTEN_Y177_R173P] 1.29, DLDFTYIFPNI [PTEN_Y27_L25F_YF] 0.996, RHYVYYYSYLL [PTEN_Y177_R173H] 1.93, PRQRRYVFFFS [PTEN_Y174_S170R_YF] 0.343, RFLFFYSFLLK [PTEN_Y178_V175L_YF] 1.29, RNVFFYSFLLK [PTEN_Y178_Y174N_YF] 1.75, NHYKIHNLCAE [PTEN_Y68_Y68H] 1.28, PSQRRNVFFFS [PTEN_Y174_Y174N_YF] 0.657, NHFKRYNLCAE [PTEN_Y68_I67R_YF] 0.55, DEEDTYTMPST [PTK2_Y407] 0.429, PSQRRYVYYYS [PTEN_Y174] 0.365, VEEDTYTMPST [PTK2_Y407_D402V] 0.48, DKANRYFSPNF [PTEN_Y336] 1.14, RYLYYYSYLLK [PTEN_Y178_V175L] 2.37, LDPMVYMNDKS [PTK2B_Y834] 1.56

Each binder was assayed against SHP2 N-SH2 domain T52S in the same assay as above. Conditions: peptide library: pTyr-Var.

Enrichment score, inactive:
RNVYYYSYLLK [PTEN_Y178_Y174N] 2.31, ECKFLYSRKEG [PTPN11_Y263_L261F] 0.585, DKANRYFSPNV [PTEN_Y336_F341V] 0.541, RPYVYYYSYLL [PTEN_Y177_R173P] 1.11, DLDFTYIFPNI [PTEN_Y27_L25F_YF] 0.977, RHYVYYYSYLL [PTEN_Y177_R173H] 1.57, PRQRRYVFFFS [PTEN_Y174_S170R_YF] 0.221, RFLFFYSFLLK [PTEN_Y178_V175L_YF] 1.45, RNVFFYSFLLK [PTEN_Y178_Y174N_YF] 1.98, NHYKIHNLCAE [PTEN_Y68_Y68H] 1.51, PSQRRNVFFFS [PTEN_Y174_Y174N_YF] 0.603, NHFKRYNLCAE [PTEN_Y68_I67R_YF] 0.579, DEEDTYTMPST [PTK2_Y407] 0.499, PSQRRYVYYYS [PTEN_Y174] 0.53, VEEDTYTMPST [PTK2_Y407_D402V] 0.475, DKANRYFSPNF [PTEN_Y336] 1.25, RYLYYYSYLLK [PTEN_Y178_V175L] 2.8, LDPMVYMNDKS [PTK2B_Y834] 0.871

The binders below were run against SHP2 N-SH2 domain wild-type in the same assay as above. Conditions: peptide library: pTyr-Var.

Enrichment score, inactive:
RNVYYYSYLLK [PTEN_Y178_Y174N] 2.2, ECKFLYSRKEG [PTPN11_Y263_L261F] 0.525, DKANRYFSPNV [PTEN_Y336_F341V] 0.764, RPYVYYYSYLL [PTEN_Y177_R173P] 1.23, DLDFTYIFPNI [PTEN_Y27_L25F_YF] 1.02, RHYVYYYSYLL [PTEN_Y177_R173H] 1.56, PRQRRYVFFFS [PTEN_Y174_S170R_YF] 0.252, RFLFFYSFLLK [PTEN_Y178_V175L_YF] 1, RNVFFYSFLLK [PTEN_Y178_Y174N_YF] 1.86, NHYKIHNLCAE [PTEN_Y68_Y68H] 1.73, PSQRRNVFFFS [PTEN_Y174_Y174N_YF] 0.779, NHFKRYNLCAE [PTEN_Y68_I67R_YF] 0.72, DEEDTYTMPST [PTK2_Y407] 0.562, PSQRRYVYYYS [PTEN_Y174] 0.584, VEEDTYTMPST [PTK2_Y407_D402V] 0.456, DKANRYFSPNF [PTEN_Y336] 0.838, RYLYYYSYLLK [PTEN_Y178_V175L] 2.15, LDPMVYMNDKS [PTK2B_Y834] 0.916

Reference: the supplement of paper PMC10369915
